The text below walks through data of ChEMBL document CHEMBL4888484, “Replenishing the malaria drug discovery pipeline: Screening and hit evaluation of the MMV Hit Generation Library 1 (HGL1) against asexual blood stage Plasmodium falciparum ,using a nano luciferase reporter read-out” (2022).

Screen size: about 150,000 compounds; about 540 (0.36%) showed an effect of 50% or more. The list shows a part of the results.

This test relates to Plasmodium falciparum. Put plainly: Primary screen in NF54 nanoGlo assay, in single point, at 2uM, 72h; a lower Z score goes with more inhibition. The format is functional, Erythrocyte. Conditions: timepoint 72 hour.
Take `CC(=O)N[C@@H](Cc1c[nH]cn1)c1nc(CC(N)=O)nn1C1CCCCC1`: the “% Inhibition” value is given as -11% and the Z score is recorded as 1.34.

In the case of `CC(C)(C(=O)N1CC(CCO)C1)[C@H](O)c1cc(Cl)cc(Cl)c1`, the “% Inhibition” value is listed as 5% and the Z score is -0.56.

For `Cc1ccc(CC(=O)N2CCN(c3nc4c(s3)c(C)nn4-c3ccc(F)cc3)CC2)cc1`, the “% Inhibition” value is listed as -15% and the Z score was 1.64.

As to `Cn1cc(-c2ccccc2)c(NC(=O)N2CC[C@H]2C2CC2)n1`, the “% Inhibition” value is given as -12% and the Z score is listed as 2.11.

On to `COc1ccccc1CNC(=O)C1CCN(c2nc3ccc(Cl)cc3[nH]2)CC1`, for which the “% Inhibition” value is listed as -5% and the Z score was 0.85.

Turning to `CC(C)CCN(C(=O)CN(C)S(C)(=O)=O)C1CCCC1`, the “% Inhibition” value is -11% and the Z score was 1.13.

Regarding `Cc1cc(-c2ncccc2NC(=O)N(CCO)CC(F)F)cs1`, the “% Inhibition” value was 3% and the Z score is recorded as -0.51.

On to `C#CCCC1(CCC(=O)N(C)C[C@H]2CCCOC2)N=N1`, for which the “% Inhibition” value is on record as -12% and the Z score turned out to be 1.53.

`Cc1cccc(S(=O)(=O)[C@H](C#N)c2nc3ccccc3nc2N2CCN(Cc3ccccc3)CC2)c1`: the “% Inhibition” value is on record as -3% and the Z score was found to be 0.35.

Turning to `C[C@H]1[C@@H]2[C@@H](O)[C@H]([C@H](C)C(=O)N3CCOCC3)CC[C@@]2(C)CC[C@@H]1NC(=O)c1ccccn1`, the “% Inhibition” value is listed as -8% and the Z score was found to be 1.08.

Regarding `O=C(Nc1ccc(F)c(S(=O)(=O)Nc2cccc(C(F)(F)F)c2)c1)c1cc2ccccc2o1`, the “% Inhibition” value is listed as -8% and the Z score amounted to 1.43.

Turning to `CCN1CCN(C2CN(C(=O)c3c(C)[nH]c4ccccc34)C2)CC1`, the “% Inhibition” value was -18% and the Z score was found to be 3.61.

With `Cc1ccccc1-n1c(=O)n(C2CCCC2)c(=O)c2c1ncn2Cc1cccc(F)c1`, the “% Inhibition” value is given as -9% and the Z score worked out at 1.15.

As for `CN1CCCN(C(=O)CCc2ncc(-c3ccc(Cl)cc3Cl)o2)c2nc3ccccc3nc21`, the “% Inhibition” value is recorded as -13% and the Z score turned out to be 1.26.

On to `CN(Cc1ccccc1)c1ncnc2c(-c3ccc(F)cc3)nsc12`, for which the “% Inhibition” value is on record as 1% and the Z score is given as -0.14.

For the compound `CCn1cncc1-c1c(-c2ccccc2)ncn1Cc1ccc(CO)cc1`, the “% Inhibition” value is -5% and the Z score was 1.04.

Turning to `CCn1cnc2cc(NCc3nc4ccccc4n3Cc3ccccc3)ccc21`, the “% Inhibition” value was -18% and the Z score worked out at 2.03.

`Cc1ccc(C[C@@H](CNC(=O)c2cnsn2)C(=O)O)cc1`: the “% Inhibition” value turned out to be 6% and the Z score is listed as -1.05.

In the case of `O=C(Nc1nnn[nH]1)C1CC1c1ccc(Cl)cc1Cl` (configuration not stated), the “% Inhibition” value is recorded as -4% and the Z score was 0.43.

Take `Cc1cccc(F)c1NC(=O)NC1CCN(C[C@H]2CCOC2)CC1`: the “% Inhibition” value is -4% and the Z score is 0.42.

As to `Cn1c(=O)c2c(ncn2CC(=O)N2CCN(c3ccc(F)cc3)CC2)n(C)c1=O`, the “% Inhibition” value came to 3% and the Z score is -0.56.

As for `Cc1cc(C(=O)N[C@@]2(C)CCS(=O)(=O)C2)nc(C)n1`, the “% Inhibition” value is on record as -8% and the Z score was 1.16.

`Cc1nc(N[C@H]2CCC[C@H]2C(=O)O)cc(C(F)(F)F)n1`: the “% Inhibition” value turned out to be 1% and the Z score was -0.26.

`O=C(CCC(F)(F)F)Nc1cnccn1`: the “% Inhibition” value was 3% and the Z score is -0.31.

As to `CCO[C@@H](C)c1ccc(-c2cc(C)c(C)nc2O)cc1`, the “% Inhibition” value is -12% and the Z score was 1.7.

For `COc1ccc(-c2cnn(C(F)F)c2C)c(OC)n1`, the “% Inhibition” value was found to be 6% and the Z score is -0.88.

Take `CC(C)(CN)c1ccc(-c2cccc3c2CNC3=O)cc1`: the “% Inhibition” value is -16% and the Z score is reported as 1.74.

Regarding `COC(=O)C[C@H](c1ccc(O)cc1)c1c(O)n[nH]c1Cc1ccc(OC(F)(F)F)cc1`, the “% Inhibition” value was -18% and the Z score is listed as 1.97.

Consider `NC(=O)CC[C@@H]1N[C@]2(C(=O)Nc3ccccc32)[C@@H]2C(=O)N(c3ccc4ccccc4c3)C(=O)[C@H]12`, for which the “% Inhibition” value is 6% and the Z score was -0.74.

As to `COc1ccc(Cc2nnc(C(=O)NC3CCCCC3)o2)cc1OC`, the “% Inhibition” value is -6% and the Z score came out at 0.89.

For `CCNc1nc(C(=O)NC[C@H]2CCCN2CCOC)cs1`, the “% Inhibition” value was -10% and the Z score was 1.34.

As to `Cc1nn(C)c(C)c1C[C@H](C)C(=O)NCCCN(C)c1ccccc1`, the “% Inhibition” value is -9% and the Z score worked out at 1.12.

As to `CN(Cc1nccn1C)C(=O)c1cc(-c2ccc3c(c2)CCO3)no1`, the “% Inhibition” value was found to be 1% and the Z score was -0.14.

For the compound `CC(=O)N1CC(C(=O)Nc2cc(Cl)ccc2C#N)C1`, the “% Inhibition” value is given as -10% and the Z score is 1.79.

As to `COc1ccc(-c2cc3n(n2)C(=O)c2ccccc2-3)cc1`, the “% Inhibition” value is reported as -10% and the Z score came to 1.31.

In the case of `COCCN1CCC(CNC(=O)c2cc(-c3cc(OC)ccc3OC)nn2C)CC1`, the “% Inhibition” value is listed as -1% and the Z score is reported as 0.06.

As for `OCC1(F)CCCN(C2C=CCCC2)C1` (configuration not stated), the “% Inhibition” value is -15% and the Z score was 2.14.

Turning to `Cc1noc(CCNC(=O)CN2C(=O)c3ccccc3N3C(=O)c4ccccc4[C@H]23)n1`, the “% Inhibition” value was determined as 5% and the Z score is reported as -0.62.

On to `C[C@](O)(CNC(=O)COCc1nc(-c2ccccc2)no1)C1CC1`, for which the “% Inhibition” value is -16% and the Z score was 2.11.

Regarding `CCOc1ccc(CNc2cccc3c2OCC[C@@H]3O)cc1F`, the “% Inhibition” value was determined as 2% and the Z score is on record as -0.45.

As to `O=C1CO[C@@H](CNS(=O)(=O)Cc2ccccc2)CN1Cc1ccccc1`, the “% Inhibition” value is recorded as -2% and the Z score is 0.3.
